Our source for the binding signal (log fluorescence intensity) values is PMC6602471.

The other results are listed elsewhere or left out. At the low end of the ranking the order means little.

The target of the assay is T1, ELK1 (UniProt P19419).
T1 sequence: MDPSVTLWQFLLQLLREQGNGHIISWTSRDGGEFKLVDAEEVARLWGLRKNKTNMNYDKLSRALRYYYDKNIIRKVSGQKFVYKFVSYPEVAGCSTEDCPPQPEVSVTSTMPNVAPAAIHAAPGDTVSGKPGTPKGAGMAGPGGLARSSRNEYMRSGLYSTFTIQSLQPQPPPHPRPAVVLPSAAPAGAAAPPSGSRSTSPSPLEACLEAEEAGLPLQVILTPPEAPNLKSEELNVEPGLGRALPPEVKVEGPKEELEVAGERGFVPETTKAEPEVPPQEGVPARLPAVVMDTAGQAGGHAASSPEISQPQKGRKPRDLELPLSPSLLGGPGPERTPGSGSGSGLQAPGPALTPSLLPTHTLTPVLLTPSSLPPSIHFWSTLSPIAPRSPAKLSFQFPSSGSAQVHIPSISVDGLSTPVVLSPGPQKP
Briefly: custom PBM. As to conditions: custom protein-binding microarray; buffer, salt, pH and temperature not stated; high values mean tight binding; double strand, one strand shown.
For “TCCGGCTACCAGCTGCACCCACTTCAGGCCTTGTAGGTCTTGATTCGCTTGACGCTGCTG”, the binding signal (log fluorescence intensity) is 8.88. On to “GGAAATAGGCCCAGGGTAACACCGGAAGTGGGCTTAGTCTTGATTCGCTTGACGCTGCTG”, for which the binding signal (log fluorescence intensity) was determined as 11.1.

With “TTGGGACTTGACCCAACTCTGCCACGTGGGTCGTTTGTCTTGATTCGCTTGACGCTGCTG”, the binding signal (log fluorescence intensity) stood at 8.85. For “CTGGGACTTGACCCAACTCTGCCAAGTGGGTCGTTTGTCTTGATTCGCTTGACGCTGCTG”, the binding signal (log fluorescence intensity) was found to be 8.89. Then “TTAAGGGAAGACGGTTGTGGTAGTTCCGGGTATTAAGTCTTGATTCGCTTGACGCTGCTG”, with 11.3. Then “TCCGGCTACCAGCTCCACCCACTTCTGGCCTTGTAGGTCTTGATTCGCTTGACGCTGCTG”, with 8.96; and “CGTAAGTGTCGTAAACGTCGGATATCCGGTTCTTCTGTCTTGATTCGCTTGACGCTGCTG”, with 12.4.

For the sequence “AAAAGGGAAGACGGTTGTGGTAGTTCCGGGTATTAAGTCTTGATTCGCTTGACGCTGCTG”, the binding signal (log fluorescence intensity) worked out at 11.2. “CGAAAGTGTCGTAAACGTCGGATATCCGGTTCTTCTGTCTTGATTCGCTTGACGCTGCTG”: the binding signal (log fluorescence intensity) stood at 12.5.

Consider “TACGGACTTATATATGCGAATGCACATGAATAGACCGTCTTGATTCGCTTGACGCTGCTG”, for which the binding signal (log fluorescence intensity) was found to be 8.85.

“CAGCATAGGACTTCTTCGCTGAAGCAATTGATAACCGTCTTGATTCGCTTGACGCTGCTG”: the binding signal (log fluorescence intensity) was found to be 8.82.

With “CGGAAGTGTCGAAAACGTCGGATATCCGGTTCTTCTGTCTTGATTCGCTTGACGCTGCTG”, the binding signal (log fluorescence intensity) stood at 12.4. “CGGAAGTGTCGTTAACGTCGGATATCCGGTTCTTCTGTCTTGATTCGCTTGACGCTGCTG”: the binding signal (log fluorescence intensity) worked out at 12.6. Then “CACAATTTCTACAGTAATGTAGCACGCGTAACTCCTGTCTTGATTCGCTTGACGCTGCTG”, with 9.02; and “CAAAATTTTTACAGTAATGTAGCACGCGTAACTCCTGTCTTGATTCGCTTGACGCTGCTG”, with 8.94. “CAGCATAGGACTTCTTCCCTGAAGCAATAGATAACCGTCTTGATTCGCTTGACGCTGCTG”: the binding signal (log fluorescence intensity) was 8.97. Then “TGTCGGGTAAGGGAATGTACATCACGTGAATGAAAAGTCTTGATTCGCTTGACGCTGCTG”, with 8.92; and “CACAATTTTTACAGTAATGTAGCACGTGTAACTCCTGTCTTGATTCGCTTGACGCTGCTG”, with 8.82; and “GCTGCTGCGGTGCATACCCCACCGTATGTGACCCCGGTCTTGATTCGCTTGACGCTGCTG”, with 8.86. Then “GTGTATAGGATCCCATCCAACACACGTGTGAAAATGGTCTTGATTCGCTTGACGCTGCTG”, with 8.88. As to “TACTGACTTATATATGCGAATGCACATGAAAAGACCGTCTTGATTCGCTTGACGCTGCTG”, the binding signal (log fluorescence intensity) is 8.85. Take “GTGTATAGGATCCCATCCAACACACGTGTTAAAATTGTCTTGATTCGCTTGACGCTGCTG”: the binding signal (log fluorescence intensity) was 8.99. Then “CACAACTTTTACAGTAATGTAGCACGCGTAACTCCTGTCTTGATTCGCTTGACGCTGCTG”, with 8.93.

Turning to “CACAATTTTGACAGTAATGTAGCACGCGTAACTCCTGTCTTGATTCGCTTGACGCTGCTG”, the binding signal (log fluorescence intensity) was found to be 8.88. Take “GGAAAAAGGCCCAGGGTAACACCTGAAGTGGGCTTAGTCTTGATTCGCTTGACGCTGCTG”: the binding signal (log fluorescence intensity) was determined as 8.97. Then “GTGTATAGGATCCCATCTAACACACGTGTTAAAATGGTCTTGATTCGCTTGACGCTGCTG”, with 8.71. Then “TGTCGGGTAATGGAATGTAGATCACGTGAATGAAAAGTCTTGATTCGCTTGACGCTGCTG”, with 8.85; and “TAAAGGGAGGACGGTTGTGGTAGTTCCGGGTATTAAGTCTTGATTCGCTTGACGCTGCTG”, with 11.3; and “TACTGACTTATATATGCGAATGCACATGAATAGTCCGTCTTGATTCGCTTGACGCTGCTG”, with 8.75. Then “TAAAGGGAAGACGGTTGTGGTAGATCCGGGTATTAAGTCTTGATTCGCTTGACGCTGCTG”, with 9.61; and “TAAAGGGAAGACGGTTGTGGTAGTTCCGGGTTTTAAGTCTTGATTCGCTTGACGCTGCTG”, with 11.2; and “TCCGGCTACCAGCTCCAACCACTTCAGGCCTTGTAGGTCTTGATTCGCTTGACGCTGCTG”, with 9.08. On to “CAGCATAGGACTTCATCCCTGAAGCAATTGATAACCGTCTTGATTCGCTTGACGCTGCTG”, for which the binding signal (log fluorescence intensity) was determined as 8.95. “CACAATTTTTACAGTAATGTAGCACGCGTAACTCGTGTCTTGATTCGCTTGACGCTGCTG”: the binding signal (log fluorescence intensity) stood at 8.93. Take “TAAAGGGAAGCCGGTTGTGGTAGTTCCGGGTATTAAGTCTTGATTCGCTTGACGCTGCTG”: the binding signal (log fluorescence intensity) is 11.8.

For the sequence “GCTGCTGCGGTGCATACCCCAGCGGATGTGACCCCGGTCTTGATTCGCTTGACGCTGCTG”, the binding signal (log fluorescence intensity) came out at 9.14. Then “GATTAATATCTGCCCTTATTCGCACGTGCCATAACAGTCTTGATTCGCTTGACGCTGCTG”, with 8.95. Then “CACAATTTTTTCAGTAATGTAGCACGCGTAACTCCTGTCTTGATTCGCTTGACGCTGCTG”, with 8.81; and “GTGTATAGGATCCCATCCAACACACGTGTTATAATGGTCTTGATTCGCTTGACGCTGCTG”, with 8.89; and “CGGAAGTGTCGTAAAGGTCGGATATCCGGTTCTTCTGTCTTGATTCGCTTGACGCTGCTG”, with 12.4.

Consider “TACTGACTTATATATGCGAATGCACATGGATAGACCGTCTTGATTCGCTTGACGCTGCTG”, for which the binding signal (log fluorescence intensity) is 8.88.
